Experimental findings from PubChem BioAssay AID324 (DTP/NCI, 2004) are described below.

The test concerns CD2F1 mice, AMSA-resistant P388 leukemia ip, median survival T/C. Description: NCI In Vivo Anticancer Drug Screen. Data for tumor model P388 Leukemia resistant to AMSA; NSC 249992 (intraperitoneal) in CD2F1 (CDF1) mice. Particulars: endpoint: median survival time; dose: 2.16 mg/kg/injection; schedule: Q04DX003 (ip); vehicle: saline; higher = longer survival. The method, then: The antitumor activity of compounds was measured in mice bearing transplantable tumors. Survival or tumor size were measured and the results are expressed as the measurement made in the treated group (T) divided by the measurement made in the vehicle treated control group (C). The tumor model used in this assay is P388 Leukemia resistant to AMSA; NSC 249992 (intraperitoneal) in CD2F1 (CDF1) mice

Inconclusive results and toxic doses are left out. A number of entries come with more than one value. This list holds those alone. The source may hold further records. Results that share an entry do not match, cause unknown; dose, time, organism, isomer or construct need not be as stated for each record.

For the compound `O=C1c2c(O)ccc(O)c2C(=O)c2c(NCCNCCO)ccc(NCCNCCO)c21`, the T/C is 124 % of control and 151 % of control.
